About 17,000 (4.7%) of roughly 360,000 compounds were called active. The inconclusive results got no clear call from the source; some entries with a clear call stand among them for comparison. Cut-off read from the data, not from the text of the source: active = activity change below about -50%; inconclusive = mostly about -30% to -49%; inactive = weaker than that.
test: qHTS for Inhibitors of Inflammasome Signaling: IL-1-beta AlphaLISA Primary Screen; details: THP-1 LPS/ATP IL-1B secretion, 16 h; at 57.5 µM, active compounds read low
Method in brief: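 Secreted IL-1B measured by AlphaLISA bead assay after 16 h compound exposure of THP-1 cells; compounds (final up to 57.5 uM) added 1 h before LPS (250 ng/mL) and ATP (1.25 mM) stimulation; lower signal means less secretion.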
% is set by controls: 0 for no effect and ±100 for the full control effect.

Activity change, active:
O=C1c2ccccc2C(=O)c2c1oc(C(F)(F)F)c2C(=O)c1ccccc1 -84.4%
CCOC(=O)C1=C(COC(=O)CCS(=O)(=O)c2ccc(C)cc2)NC(=O)NC1C (configuration not stated) -80.1%
COc1cccc(NC(=O)CN(C)C(=O)CSCc2nc3scc(-c4cccs4)c3c(=O)[nH]2)c1 -57.4%
COc1ccc(C(CCNCc2ccc(N(C)C)cc2)c2ccccc2)cc1 (configuration not stated) -101%
O=C(NCCC(c1ccccc1)c1ccccc1)c1cccs1 -56.5%
O=C(N/N=C/c1ccc(Cl)c([N+](=O)[O-])c1)c1ccc2nc[nH]c2c1 -95.7%
Cc1ccc(/C=N/n2cnc3sc4c(c3c2=O)CCCC4)o1 -57.7%
O=[N+]([O-])c1ccc(-c2nc(Cl)c3c(n2)CCCC3)o1 -93.8%
Nc1nc2ccccc2n1Cc1ccc(Cl)c(Cl)c1 -91.7%
NCCNC(=O)c1c(O)c2cccc3c2n(c1=O)CCC3 -91.7%
COc1ccc(-n2c(SC(CN3CCCCC3)CN3CCCC3=O)nc3ccccc3c2=O)cc1 (configuration not stated) -52.2%
CCCN(CC(=O)Nc1ccccc1C)C(=O)CCl -95.3%
CC(C)CC(=O)/C=C/n1c(=S)oc2ccccc21 -106%
Cc1cc(OCCCCn2ccnc2)cc(C)c1Cl -69.6%
Clc1nnc(N2CCCCC2)c2ccccc12 -81.3%
CC1CCCC(NCC(O)COC(c2ccc(F)cc2)c2ccc(F)cc2)C1C (configuration not stated) -115%
Cn1cnnc1Sc1ccc(/C=C/C(=O)c2ccc(O)cc2)cc1[N+](=O)[O-] -101%
C/C(=N/NC(=O)c1nnn(-c2nonc2N)c1-c1ccccc1)c1ccc2c(c1)OCO2 -86.4%
CC(=O)N1NC(=Nc2ccccc2)SC1(C)C -75.1%
CCN(CC)CC(=O)Nc1sc2c(c1C(=O)c1ccccc1OC)CCC2 -53.4%
CC1CCCN(c2nc(-c3cccnc3)nc3scc(-c4ccccc4)c23)C1 (configuration not stated) -60.9%

Activity change, inconclusive:
CCOC(=O)[C@@H]1[C@H]2COc3cc(OC)ccc3[C@H]2N2C(=O)N(c3cccc(Cl)c3)C(=O)[C@]12C -34.1%
COc1ccc(NC(=O)C(CC(C)C)NC(=O)C2CCC(C)CC2)c(OC)c1 (configuration not stated) -33.1%
CCOc1ccccc1OCCOc1ccc(F)cc1 -31.6%
CC1(C(=O)Nc2ccc3ccccc3c2)CCC(=O)N1C1CCN(Cc2ccccc2)CC1 (configuration not stated) -42.8%
COc1cc(C#Cc2c(-c3cncn3C)n(C)c3ccc(-c4cnc(N5CCOCC5)nc4)cc23)cc(OC)c1 -49.3%
CCCCCCNC(=O)O[C@H]1Cn2c(=O)n(CCCCCC)c(=O)n2[C@@H]2CN(S(=O)(=O)c3ccc(C)cc3)C[C@]12O -41.2%
COc1ccc(CN2C(=O)C(Cc3ccccc3)Nc3ncnc(N4CCN(c5ccccc5)CC4)c32)cc1 (configuration not stated) -49.4%
NC1=CC(=O)C(=O)c2ccccc21 -45.3%
O=C(COc1ccccc1F)Nc1cc(S(=O)(=O)N2CCOCC2)ccc1N1CCOCC1 -31.2%
O=C(N1CCCCC1)N1CCN(c2ccc(Cl)cc2)CC1 -44.5%
O=C(Nc1ccc(C(=O)N2CCN(c3ccccc3)CC2)cc1)C1=CSCCO1 -36.4%
COc1ccc2nc3n(c(=O)c2c1)-c1ncccc1C(=O)NC3Cc1ccccc1 (configuration not stated) -46.7%
CC(C)Cn1c(CNC(=O)c2ccccc2)nc2ccccc21 -33.5%
COc1ccc(N2CCN(C(=O)CSc3nnc4c(C)cc5c(C)cc(C)cc5n34)CC2)cc1 -37.6%
COc1ccc(CN(Cc2cccnc2)S(=O)(=O)c2ccc(-n3cnnn3)c(C)c2)cc1OC -32.5%
CN1N=C(c2ccc(Cl)cc2)CC(c2ccc(Cl)cc2)C1=O (configuration not stated) -39.4%
CCC(=O)N1N=C(c2c(-c3ccccc3)c3cc(Cl)ccc3[nH]c2=O)CC1c1ccco1 (configuration not stated) -37%
CCCCOC(=O)c1sc2nc(C)cc(C)c2c1N -49.6%
Oc1[nH]c2ccccc2c1C=Nc1ccc2c(c1)OCO2 -40.3%
N#C/C(=C\c1c[nH]c2ccccc12)C(=O)NC1CC1 -46.8%
O=C(Nc1cc(Cl)cc(Cl)c1)c1ccc(Cn2c(=O)[nH]c3ccsc3c2=O)cc1 -32.4%
COc1cc(C(=O)NCCNc2nc3ccc(C)cc3cc2C#N)cc(OC)c1OC -31.2%
Cc1nn(-c2ccccc2)c(N)c1C(c1ccc(C(C)C)cc1)c1c(C)nn(-c2ccccc2)c1N -46.9%
COC(=O)c1ccccc1NC(=O)Cn1c(=O)n(CCC(=O)NC2CCN(Cc3ccccc3)CC2)c(=O)c2ccccc21 -31.8%
Cc1ccc(-c2cc(C(=O)N/N=C/C=C/c3ccccc3)n[nH]2)o1 -49.9%
COC(=O)c1[nH]c2ccccc2c1NC(=O)CN1CCCc2ccccc21 -41.6%
CC(C)CC(c1nnnn1CC1CCCO1)N1CCN(Cc2ccc3c(c2)OCO3)CC1 (configuration not stated) -30.8%
Cc1cc(C#N)c(C)c(SCc2[nH]nc3c2C(c2ccccc2)C(C#N)=C(N)O3)n1 (configuration not stated) -33.5%
CCOc1cc(C(=O)N2CCC(CC3CC(c4ccccc4)=NO3)(C(=O)NCc3ccc(OC)cc3)CC2)cc(OCC)c1OCC (configuration not stated) -41.5%
Cc1ccc(OCC(=O)Nc2ccc(Cl)cc2)c([N+](=O)[O-])n1 -46.7%
OC(c1ccccc1)(c1ccccc1)C1CCN(C(=S)NCCc2ccccc2)CC1 -44.4%
Cc1cc(C)n(-c2ccc(C(=O)N3CCc4ccccc43)cc2)n1 -31.4%
COc1cccc(CN(C)C(=O)c2cccc(S(=O)(=O)N3CCN(c4ccc(F)cc4)CC3)c2)c1OC -32.3%
Cc1cc(C)c(/C=C2\C(=O)Nc3ccccc32)[nH]1 -42.5%
COc1ccccc1N1CCN(C(=O)c2ccc3c(c2)CCN3S(=O)(=O)c2ccccc2)CC1 -49.1%

Activity change, inactive:
CNC(=S)NNC(=O)c1ccccc1F 0%
CCOC(=O)C(NC(=O)NCc1cccc(C(F)(F)F)c1)(OCC)C(F)(F)F (configuration not stated) 13%
CC1=N/C(=C\c2ccc(OC(C)C)cc2)C(=O)N1c1ccc(C(=O)O)cc1 -20.5%
CCOc1ccccc1OCC(=O)Nc1nc2ccccc2[nH]1 -4.17%
CCC(=O)C1CCCN(C(=O)c2ccc(OC3CCN(C(=O)CCOC)CC3)cc2)C1 (configuration not stated) 17.4%
CC(=O)c1cc(NC(=O)c2ccc([N+](=O)[O-])cc2)c(=O)oc1C -17.7%
CCC(C(N)=O)N1C(=O)C2C3CCC(C3)C2C1=O (configuration not stated) 24%
O=C(NCC(c1ccc(F)cc1)N1CCOCC1)c1ccccc1F (configuration not stated) 6.57%
COC(=O)C[C@H]1c2cc(F)ccc2S(=O)(=O)N1Cc1ccccc1 32.4%
CC(C)CC(=O)NC(=S)Nc1ccccc1N1CCCC1 36.2%
O=S(=O)(Nc1ccc2c(c1)OCCO2)c1cnc[nH]1 0.778%
Cc1cc(OC(C)C(=O)N2CCN(c3ccc(F)cc3)CC2)c2c(C)cc(=O)oc2c1 (configuration not stated) 28.3%
O=C(NCCc1ccccc1F)[C@@H]1CSC2c3ccccc3C(=O)N21 (some centres not stated) 9.2%
Cc1ccc(F)cc1CNC(=O)C1CCC(=O)N(CC2CCCCC2)C1 (configuration not stated) 17.5%
O=C(CCNS(=O)(=O)c1ccc(Cl)cc1)OCC(=O)c1ccc[nH]1 -2.23%
O=C(Nc1nnc(S(=O)(=O)N2CCCCCC2)s1)c1ccccc1Br -3.38%
COc1ccc(CCNC(=O)Nc2ccc(F)cc2F)cc1OC 7.29%
CC(C)NC(=O)CN1CCN(C(=O)CCl)CC1 -6.72%
CC(C)(C)OC(=O)C[C@@H]1C/C=C\C[C@@H](CC(=O)N(CCO)Cc2ccccc2)C(=O)NC[C@H](c2ccccc2)OC1=O -6.41%
CC1C(=O)N(Cc2cn(Cc3ccco3)nn2)CCS(=O)(=O)N1Cc1ccc(-c2ccc(F)nc2)cc1 (configuration not stated) -18%
COC(=O)c1c(NC(=O)CSc2nccn2C)sc(C)c1C -11.1%
O=c1[nH]c(CSc2nnc(Cc3ccccc3)o2)nc2ccccc12 8.35%
Cc1ccccc1C(=O)Nc1ccc(-c2nnc(SC(C)C(=O)O)n2C)cc1 (configuration not stated) -5.79%
Cc1cccc(NC(=O)c2nc[nH]c2C(=O)NCc2ccccc2)c1 -4.54%
CCNC(=O)C1(C)CCN1CCC(=O)c1ccc(Br)cc1 (configuration not stated) 0%
NC(=O)NC(Cc1ccccc1)C(=O)NCCCSc1ccccc1 (configuration not stated) 27.8%
O=C(COC(=O)C1CCC1)Nc1cccc(Cl)c1 16.3%
Cc1ccc(NC(=O)COC(=O)C2CC2(Cl)Cl)cc1C (configuration not stated) 6.25%
COc1ccc(-c2csc(NC(=O)CSCC(=O)Nc3cc(C)on3)n2)cc1OC 48.1%
C=CCN1C(=O)C(CC(=O)Nc2ccc(C)cc2)SC1=Nc1c(C)n(C)n(-c2ccccc2)c1=O (configuration not stated) 23.6%
C=CCn1c(-c2cccc([N+](=O)[O-])c2)n[nH]c1=S 0%

From PubChem BioAssay AID743279 (National Center for Advancing Translational Sciences (NCATS), 2014)
